Measurements reported in article PMC9911399, “Two distinct binding modes provide the RNA-binding protein RbFox with extraordinary sequence specificity”.
Numbering of substitutions follows the chain as printed; changes in the protein carry UniProt numbers. The list shows a part of the results.

T1: RBFOX1 RRM (Homo sapiens, UniProt Q9NWB1 109-208)
T1 sequence: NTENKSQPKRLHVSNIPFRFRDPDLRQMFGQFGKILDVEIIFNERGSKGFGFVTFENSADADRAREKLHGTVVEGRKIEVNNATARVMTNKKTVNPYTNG

B1: CCGAGGA (DNA:RNA)
RNA: GGGAGACCGGAAUUCAGAUUGUCCCCGAGGAUUAAAUCCCGUCGUAGCCACCA
DNA 1: CAATCTGAATTCCGGTCTCCC
DNA 2: TGGTGGCTACGACGGGATT
B2: UUGCAAG (DNA:RNA)
RNA: B1 RNA with C25U, C26U, A28C, G29A, G30A, A31G
DNA 1: CAATCTGAATTCCGGTCTCCC
DNA 2: TGGTGGCTACGACGGGATT
B3: AGGACCU (DNA:RNA)
RNA: B1 RNA with C25A, C26G, G29C, G30C, A31U
DNA 1: CAATCTGAATTCCGGTCTCCC
DNA 2: TGGTGGCTACGACGGGATT
B4: CAGCCGA (DNA:RNA)
RNA: B1 RNA with C26A, A28C, G29C
DNA 1: CAATCTGAATTCCGGTCTCCC
DNA 2: TGGTGGCTACGACGGGATT
B5: UAUCUUC (DNA:RNA)
RNA: GGGAGACCGGAAUUCAGAUUGUCCUAUCUUCUUAAAUCCCGUCGUAGCCACCA
DNA 1: CAATCTGAATTCCGGTCTCCC
DNA 2: TGGTGGCTACGACGGGATT
B6: AUUGGUA (DNA:RNA)
RNA: B1 RNA with C25A, C26U, G27U, A28G, G30U
DNA 1: CAATCTGAATTCCGGTCTCCC
DNA 2: TGGTGGCTACGACGGGATT
B7: ACAAUGU (DNA:RNA)
RNA: B1 RNA with C25A, G27A, G29U, A31U
DNA 1: CAATCTGAATTCCGGTCTCCC
DNA 2: TGGTGGCTACGACGGGATT
B8: CCAUGCG (DNA:RNA)
RNA: B1 RNA with G27A, A28U, G30C, A31G
DNA 1: CAATCTGAATTCCGGTCTCCC
DNA 2: TGGTGGCTACGACGGGATT
B9: GCAUUGU (DNA:RNA)
RNA: B1 RNA with C25G, G27A, A28U, G29U, A31U
DNA 1: CAATCTGAATTCCGGTCTCCC
DNA 2: TGGTGGCTACGACGGGATT
B10: GUUUCCG (DNA:RNA)
RNA: B5 RNA with U25G, A26U, C28U, U29C, U30C, C31G
DNA 1: CAATCTGAATTCCGGTCTCCC
DNA 2: TGGTGGCTACGACGGGATT
B11: UAUAGGU (DNA:RNA)
RNA: B1 RNA with C25U, C26A, G27U, A31U
DNA 1: CAATCTGAATTCCGGTCTCCC
DNA 2: TGGTGGCTACGACGGGATT
B12: CGUAUUA (DNA:RNA)
RNA: B1 RNA with C26G, G27U, G29U, G30U
DNA 1: CAATCTGAATTCCGGTCTCCC
DNA 2: TGGTGGCTACGACGGGATT
B13: GUACGUU (DNA:RNA)
RNA: B5 RNA with U25G, A26U, U27A, U29G, C31U
DNA 1: CAATCTGAATTCCGGTCTCCC
DNA 2: TGGTGGCTACGACGGGATT
B14: GUGGAAC (DNA:RNA)
RNA: B1 RNA with C25G, C26U, A28G, G29A, G30A, A31C
DNA 1: CAATCTGAATTCCGGTCTCCC
DNA 2: TGGTGGCTACGACGGGATT
B15: AGUAAGG (DNA:RNA)
RNA: B1 RNA with C25A, C26G, G27U, G29A, A31G
DNA 1: CAATCTGAATTCCGGTCTCCC
DNA 2: TGGTGGCTACGACGGGATT
B16: AGUACUC (DNA:RNA)
RNA: B5 RNA with U25A, A26G, C28A, U29C
DNA 1: CAATCTGAATTCCGGTCTCCC
DNA 2: TGGTGGCTACGACGGGATT
B17: CACCCCG (DNA:RNA)
RNA: B5 RNA with U25C, U27C, U29C, U30C, C31G
DNA 1: CAATCTGAATTCCGGTCTCCC
DNA 2: TGGTGGCTACGACGGGATT
B18: CUGCCAA (DNA:RNA)
RNA: B1 RNA with C26U, A28C, G29C, G30A
DNA 1: CAATCTGAATTCCGGTCTCCC
DNA 2: TGGTGGCTACGACGGGATT
B19: CCAGGAA (DNA:RNA)
RNA: B1 RNA with G27A, A28G, G30A
DNA 1: CAATCTGAATTCCGGTCTCCC
DNA 2: TGGTGGCTACGACGGGATT
B20: GACUAGA (DNA:RNA)
RNA: B1 RNA with C25G, C26A, G27C, A28U, G29A
DNA 1: CAATCTGAATTCCGGTCTCCC
DNA 2: TGGTGGCTACGACGGGATT
B21: AAAACUC (DNA:RNA)
RNA: B5 RNA with U25A, U27A, C28A, U29C
DNA 1: CAATCTGAATTCCGGTCTCCC
DNA 2: TGGTGGCTACGACGGGATT
B22: GGUAGCC (DNA:RNA)
RNA: B1 RNA with C25G, C26G, G27U, G30C, A31C
DNA 1: CAATCTGAATTCCGGTCTCCC
DNA 2: TGGTGGCTACGACGGGATT
B23: CGCUAGC (DNA:RNA)
RNA: B1 RNA with C26G, G27C, A28U, G29A, A31C
DNA 1: CAATCTGAATTCCGGTCTCCC
DNA 2: TGGTGGCTACGACGGGATT
B24: AUACGGC (DNA:RNA)
RNA: B1 RNA with C25A, C26U, G27A, A28C, A31C
DNA 1: CAATCTGAATTCCGGTCTCCC
DNA 2: TGGTGGCTACGACGGGATT
B25: UCGUACU (DNA:RNA)
RNA: B1 RNA with C25U, A28U, G29A, G30C, A31U
DNA 1: CAATCTGAATTCCGGTCTCCC
DNA 2: TGGTGGCTACGACGGGATT
B26: ACAGCUU (DNA:RNA)
RNA: B1 RNA with C25A, G27A, A28G, G29C, G30U, A31U
DNA 1: CAATCTGAATTCCGGTCTCCC
DNA 2: TGGTGGCTACGACGGGATT
B27: AAAUUGU (DNA:RNA)
RNA: B5 RNA with U25A, U27A, C28U, U30G, C31U
DNA 1: CAATCTGAATTCCGGTCTCCC
DNA 2: TGGTGGCTACGACGGGATT
B28: GCUGUUA (DNA:RNA)
RNA: B5 RNA with U25G, A26C, C28G, C31A
DNA 1: CAATCTGAATTCCGGTCTCCC
DNA 2: TGGTGGCTACGACGGGATT
B29: GGCUAUC (DNA:RNA)
RNA: B5 RNA with U25G, A26G, U27C, C28U, U29A
DNA 1: CAATCTGAATTCCGGTCTCCC
DNA 2: TGGTGGCTACGACGGGATT
B30: UACCUAA (DNA:RNA)
RNA: B5 RNA with U27C, U30A, C31A
DNA 1: CAATCTGAATTCCGGTCTCCC
DNA 2: TGGTGGCTACGACGGGATT
B31: GGGUCCG (DNA:RNA)
RNA: B1 RNA with C25G, C26G, A28U, G29C, G30C, A31G
DNA 1: CAATCTGAATTCCGGTCTCCC
DNA 2: TGGTGGCTACGACGGGATT

target: T1, RBFOX1 RRM; assay: EMSA; HiTS-Eq, 1 nM pool, 10 min; buffer printed only for the single-RNA assays: 10 mM Tris pH 7.5, 150 mM NaCl, 3.4 mM EDTA, 0.001% NP-40, 30 C; conditions: tags: His6 N-terminal (pET28a); label: 5' 32P
In short: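 A pool of RNA with 7 randomized nucleotides, 5′-radiolabelled and with DNA-annealed flanks, was equilibrated at 1 nM for 10 min in 50 µL with purified RbFox RRM, wild type or mutant, across increasing protein concentrations. Free RNA was separated by 8% native PAGE, excised, reverse-transcribed, barcoded by PCR and sequenced. Relative association constants were obtained from read-count changes of each RNA species versus the control reaction and normalised to the cognate motif.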

Binder | binding signal
B1 | 0.00948 KA relative to UGCAUGU
B2 | 0.0333 KA relative to UGCAUGU
B3 | 0.00932 KA relative to UGCAUGU
B4 | 0.00829 KA relative to UGCAUGU
B5 | 0.0111 KA relative to UGCAUGU
B6 | 0.0104 KA relative to UGCAUGU
B7 | 0.00427 KA relative to UGCAUGU
B8 | 0.00877 KA relative to UGCAUGU
B9 | 0.0129 KA relative to UGCAUGU
B10 | 0.0199 KA relative to UGCAUGU
B11 | 0.00931 KA relative to UGCAUGU
B12 | 0.00205 KA relative to UGCAUGU
B13 | 0.00874 KA relative to UGCAUGU
B14 | 0.0156 KA relative to UGCAUGU
B15 | 0.00699 KA relative to UGCAUGU
B16 | 0.0053 KA relative to UGCAUGU

Binder | binding signal
B17 | 0.002 KA relative to UGCAUGU
B18 | 0.0111 KA relative to UGCAUGU
B19 | 0.011 KA relative to UGCAUGU
B20 | 0.0143 KA relative to UGCAUGU
B21 | 0.00166 KA relative to UGCAUGU
B22 | 0.00884 KA relative to UGCAUGU
B23 | 0.0135 KA relative to UGCAUGU
B24 | 0.00749 KA relative to UGCAUGU
B25 | 0.0101 KA relative to UGCAUGU
B26 | 0.00515 KA relative to UGCAUGU
B27 | 0.00588 KA relative to UGCAUGU
B28 | 0.0113 KA relative to UGCAUGU
B29 | 0.00526 KA relative to UGCAUGU
B30 | 0.000874 KA relative to UGCAUGU
B31 | 0.0257 KA relative to UGCAUGU
